{"source": "PubChem BioAssay AID686978", "about": "(National Center for Advancing Translational Sciences (NCATS), 2013)", "note": "The campaign covered roughly 420,000 compounds. About 64,000 (15%) were called active. Inconclusive results, whose numbers are uncertain, are shown with a selection of clear calls. Calls follow the shape of the dose curve; as a rule, active = well fitted inhibition curve with a large enough effect; inconclusive = small, poorly fitted or top-dose-only effect; inactive = flat fitted curve, though single readings scatter. Potencies of inconclusive entries are left out as doubtful fits. % is scaled to controls: 0 for no effect and ±100 for the full control effect; potency is read from the fitted curve at half-maximal effect; tags tell the direction and shape of the fitted curve."}
{"assay": "qHTS for Inhibitors of human tyrosyl-DNA phosphodiesterase 1 (TDP1): qHTS in cells in absence of CPT; also: nearly all actives have a fitted effect of over 55% in size", "conditions": "DT40 Tdp1-/- hTDP1 cells, no CPT, ATP luminescence, 48 h; activity change, negative = growth inhibition: at 46.2 µM (top of the series) unless noted", "procedure,_shortened": "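No-CPT arm: Tdp1-/-;hTDP1 DT40 cells (400/well) plus compounds, incubated ≥48 hr at 37 °C. Readout CellTiter-Glo luminescence.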"}
{"smiles": "Cc1ccc(-c2cn3nc(N4CCC(C(=O)Nc5ccccc5C)CC4)sc3n2)cc1", "Potency": "inconclusive [inhibitor, single point]"}
{"smiles": "O=C(N/N=C/c1ccc([N+](=O)[O-])cc1)c1c[nH]c2ccccc12", "Potency": "inconclusive [inhibitor, partial curve]"}
{"smiles": "Cc1nn(Cc2cccc(C(=O)NC(C)c3ccc(C(C)(C)C)cc3)c2)c(C)c1[N+](=O)[O-]", "note": "(centres undefined)", "Potency": "inconclusive [inhibitor, single point]"}
{"smiles": "NC(=O)c1nsc(C(=O)N(CC(=O)NC2CCCC2)Cc2ccc3c(c2)OCO3)c1N", "Potency": "inconclusive [inhibitor, partial curve, poor fit]"}
{"smiles": "CCC(C)NC(=O)c1cc(-c2cccs2)nc2ccccc12", "note": "(centres undefined)", "activity change, negative = growth inhibition": "inconclusive: -34.8% [inhibitor]"}
{"smiles": "CCOc1ccccc1CNC(=O)C1CCN(Cc2cc3ccccc3n2Cc2ccccc2)CC1", "Potency": "active: 16.4 µM"}
{"smiles": "CCN1CNC(=S)N(c2cccc(C)c2)C1", "activity change, negative = growth inhibition": "inconclusive: -30.2% [inhibitor]"}
{"smiles": "Cc1cc(N2CCN(c3ncccn3)CC2)nc2c(C)cccc12", "Potency": "active: 14.6 µM"}
{"smiles": "N=c1c(S(=O)(=O)c2ccc(Br)cc2)cc2c(=O)n3ccccc3nc2n1C1CCCC1", "Potency": "inconclusive [inhibitor, single point]"}
{"smiles": "Cn1c2ccccc2c2c(C(=O)N3CCN(c4cccc(C(F)(F)F)c4)CC3)cn(C3CCCCC3)c(=O)c21", "Potency": "active: 16.4 µM"}
{"smiles": "CCOC(=O)c1nc(C)nc(Sc2n[nH]c(-c3cc(C(F)(F)F)cc(C(F)(F)F)c3)n2)c1C", "Potency": "inconclusive [inhibitor, single point]"}
{"smiles": "CCN(CC1CCCO1)C(=O)c1cc(COc2ccccc2SC)on1", "note": "(centres undefined)", "Potency": "active: 20.6 µM"}
{"smiles": "C/C(=N\\NC(=O)c1ccoc1C)c1ccccc1O", "Potency": "active: 11.6 µM"}
{"smiles": "CN(C)S(=O)(=O)N(CC(=O)NCCSc1ccc(Cl)cc1)c1ccccc1", "Potency": "inconclusive [inhibitor, single point]"}
{"smiles": "CN(C)C(=O)c1ccc(-c2nc(Nc3ccccc3)c3ccccc3n2)cc1", "Potency": "active: 16.4 µM"}
{"smiles": "Nn1c(SCc2ccc(F)cc2)nnc1-c1cccnc1", "activity change, negative = growth inhibition": "inactive: -0.276%"}
{"smiles": "CC(C)N1CCC(N2CCN(Cc3ccc(Oc4ncccn4)cc3)CC2CCO)CC1", "note": "(centres undefined)", "activity change, negative = growth inhibition": "inactive: -0.743%"}
{"smiles": "Cc1cc(-c2cc(-c3ccc(Cl)cc3)on2)nc(NC2CCCC2)n1", "Potency": "inconclusive [inhibitor, single point]"}
{"smiles": "CCOc1ccccc1CN1CCNC(=O)C1CC(=O)N(C)CCC1CCOCC1", "note": "(centres undefined)", "activity change, negative = growth inhibition": "inactive: 8.02%"}
{"smiles": "O=C(Nc1ccc2c(c1)OCO2)c1cnc(Cl)c(Cl)c1", "Potency": "inconclusive [inhibitor, single point]"}
{"smiles": "CC(=O)Nc1ccc(C=C(C(C)=O)C(C)=O)cc1", "Potency": "inconclusive [inhibitor, single point]"}
{"smiles": "C[C@@H](C(=O)NCc1ccco1)N1C(=O)N2CCc3c([nH]c4ccccc34)[C@@]2(C)C1=O", "Potency": "inconclusive [inhibitor, full curve, poor fit]"}
{"smiles": "COc1ccc(NS(=O)(=O)c2ccc(N3CCOCC3)c(NC(=O)c3ccccc3Br)c2)cc1", "Potency": "inconclusive [inhibitor, partial curve, poor fit]"}
{"smiles": "CCC1CCc2sc(C(=O)NCC(c3ccccc3OC)N3CCCC3)cc2C1", "note": "(centres undefined)", "Potency": "active: 20.6 µM"}
{"smiles": "COc1ccc(-c2coc3c(CN4CCCCC4C)c(O)ccc3c2=O)cc1", "note": "(centres undefined)", "Potency": "active: 18.4 µM"}
{"smiles": "COc1ccc(N(CC(=O)Nc2cc(C)ccc2OC)S(=O)(=O)c2c(C)noc2C)cc1", "Potency": "inconclusive [inhibitor, single point]"}
{"smiles": "OC(c1ccc2c(c1)CN(Cc1c[nH]c3ccccc13)CCO2)c1ccccn1", "note": "(centres undefined)", "Potency": "inconclusive [inhibitor, single point]"}
{"smiles": "Nc1nc(SCC(=O)Nc2ccc(Cl)cc2C(F)(F)F)n[nH]1", "Potency": "inconclusive [inhibitor, single point]"}
{"smiles": "O=C(CNC(=O)C1CCCCC1)OCC(=O)c1ccc(-c2ccccc2)cc1", "activity change, negative = growth inhibition": "inactive: -4.63%"}
{"smiles": "COc1cc(/C=C(\\C#N)C(=O)NCC2CCCO2)ccc1OCC(N)=O", "note": "(centres undefined)", "activity change, negative = growth inhibition": "inactive: -19.4%"}
{"smiles": "O=C(NCc1cccc2ccccc12)Nc1ccccc1", "Potency": "inconclusive [inhibitor, single point]"}
{"smiles": "Cc1ccc(C(=O)Nc2ccccc2[N+](=O)[O-])cc1S(=O)(=O)N1CCOCC1", "Potency": "inconclusive [inhibitor, single point]"}
{"smiles": "Cc1ccccc1CC1(CO)CCCN(Cc2c(C)nn(C)c2Cl)C1", "note": "(centres undefined)", "Potency": "inconclusive [inhibitor, single point]"}
{"smiles": "COC(=O)[C@]1(C)N[C@H](CN(C)S(=O)(=O)c2ccc(C)cc2)[C@@H]2C(=O)N(C)C(=O)[C@@H]21", "activity change, negative = growth inhibition": "inactive: -27.4%"}
{"smiles": "CCOC(=O)N1CCN(C(=O)c2oc3ccc(S(=O)(=O)N(CC)CC)cc3c2C)CC1", "Potency": "inconclusive [inhibitor, partial curve]"}
{"smiles": "Cc1cccc(Cn2c(SCc3ccc(C(=O)NCc4ccccc4F)cc3)nc3cccnc32)c1", "Potency": "active: 20.6 µM"}
{"smiles": "C#CCn1c(=NC(=O)CSC(C)=O)sc2cc(F)ccc21", "Potency": "active: 20.6 µM"}
{"smiles": "CC(=O)N1c2ccc(S(=O)(=O)N3CCCCC3)cc2CC1C(=O)NCc1ccc(N(C)C)cc1", "note": "(centres undefined)", "Potency": "inconclusive [inhibitor, single point]"}
{"smiles": "Cc1cccc(-n2nnnc2SCC(=O)NCC2(N3CCOCC3)CCCCC2)c1C", "Potency": "active: 20.6 µM"}
{"smiles": "COc1ccc(OCCSc2nnc(-c3ccccc3)n2N)cc1", "Potency": "inconclusive [inhibitor, single point]"}
{"smiles": "CC1CN(C(=O)Nc2ccc3snnc3c2)c2ccccc21", "note": "(centres undefined)", "Potency": "inconclusive [inhibitor, single point]"}
{"smiles": "Cc1cc(C)c2oc(C(=O)Nc3nc4ccc(Cl)cc4s3)cc(=O)c2c1", "activity change, negative = growth inhibition": "inactive: 6.78%"}
{"smiles": "CCOC(=O)C1(CCCc2ccccc2)CCN(Cc2nccn2CC)CC1", "Potency": "inconclusive [inhibitor, single point]"}
{"smiles": "COc1cccc(NS(=O)(=O)c2ccc3[nH]cc(C(=O)NCCc4ccc(C)cc4)c(=O)c3c2)c1", "Potency": "active: 16.4 µM"}
{"smiles": "O=C(NCCC1CCCCN1S(=O)(=O)c1ccc(F)cc1)C(=O)Nc1ccccc1", "note": "(centres undefined)", "Potency": "active: 18.4 µM"}
{"smiles": "C[C@@H]1CN([C@H](C)CO)C(=O)CCCn2nncc2CO[C@@H]1CN(C)S(=O)(=O)c1ccc(-n2cccn2)cc1", "activity change, negative = growth inhibition": "inactive: -6.49%"}
{"smiles": "O=C(Nc1nc2ccc(Cl)cc2s1)C1CCCO1", "note": "(centres undefined)", "Potency": "inconclusive [inhibitor, single point]"}
{"smiles": "CN1CCN(/N=C/c2ccc(OCc3ccccc3)cc2)CC1", "Potency": "inconclusive [inhibitor, partial curve]"}
{"smiles": "Fc1ccc(N2N=C(c3cccs3)CC2c2ccccc2)cc1", "note": "(centres undefined)", "activity change, negative = growth inhibition": "inconclusive: -35.1% [inhibitor]"}
{"smiles": "CN(C)CCCN(C(=O)c1ccc(S(=O)(=O)N2CCc3ccccc32)cc1)c1nc2c(Cl)cccc2s1", "Potency": "inconclusive [inhibitor, single point]"}
{"smiles": "O=C(c1cccc(Cl)c1)C1CCCN(C(=O)c2ccc3c(c2)OCO3)C1", "note": "(centres undefined)", "Potency": "inconclusive [inhibitor, partial curve]"}
{"smiles": "O=C(Nc1ccnn1C1CCN(C2CCCC2)CC1)c1ccccc1", "activity change, negative = growth inhibition": "inactive: -7.5%"}
{"smiles": "O=C(CCCNS(=O)(=O)c1cccc2nsnc12)NCCN1CCN(c2ccccc2F)CC1", "Potency": "inconclusive [inhibitor, single point]"}
{"smiles": "COc1ccccc1NC(=O)Cc1c(F)cccc1Cl", "Potency": "inconclusive [inhibitor, single point]"}
{"smiles": "CCc1ccc2c(c1)NC(=O)C2(C)Cc1ccc(OC(F)(F)F)cc1", "note": "(centres undefined)", "Potency": "inconclusive [inhibitor, single point]"}
{"smiles": "CN1CCN(S(=O)(=O)c2ccc(Nc3ccc(F)cc3)c([N+](=O)[O-])c2)CC1", "Potency": "inconclusive [inhibitor, single point]"}
{"smiles": "O=C1c2ccccc2C(=O)N1CCc1c[nH]c2ccc(O)cc12", "Potency": "inconclusive [inhibitor, single point]"}
{"smiles": "CCOC(=O)NC1(Nc2cccc(Cl)c2)Oc2ccccc2O1", "Potency": "active: 23.1 µM"}
{"smiles": "O=C(NCc1nnc(SCC(=O)N2CCCc3ccccc32)n1-c1ccccc1)c1cccc2ccccc12", "Potency": "inconclusive [inhibitor, single point]"}
{"smiles": "O=C(NCCN1CCOCC1)c1ccc(Cl)c(S(=O)(=O)N2CCOCC2)c1", "activity change, negative = growth inhibition": "inactive: -14%"}
{"smiles": "O=C(CSc1ccc2nnc(-c3ccncc3)n2n1)Nc1ccc2c(c1)OCO2", "Potency": "inconclusive [inhibitor, single point]"}
{"smiles": "CNC(=S)N/N=C/c1cc(Br)c(OCc2ccncc2)c(OC)c1", "Potency": "inconclusive [inhibitor, single point]"}
{"smiles": "COc1ccc(N(C2CSC2)S(=O)(=O)c2ccccc2)cc1", "Potency": "inconclusive [inhibitor, partial curve]"}
{"smiles": "Cn1c(=O)c2c(SCc3ccccc3)nc(C3CC3)nc2n(C)c1=O", "Potency": "inconclusive [inhibitor, single point]"}
{"smiles": "CN1c2ccccc2C(=O)NC1c1ccc([N+](=O)[O-])s1", "note": "(centres undefined)", "Potency": "inconclusive [inhibitor, single point]"}
{"smiles": "O=C(CN(CCc1ccccc1)C(=O)CNS(=O)(=O)c1ccc(F)cc1)NCc1ccco1", "activity change, negative = growth inhibition": "inactive: -25.3%"}
{"smiles": "CC1=C(C(=O)N2CCOCC2)CC(CC(=O)NCCc2ccccn2)C(=O)N1Cc1ccccc1", "note": "(centres undefined)", "activity change, negative = growth inhibition": "inactive: 1.84%"}
{"smiles": "CNC(=S)N1N=C(c2cccs2)CC1c1ccc(F)cc1", "note": "(centres undefined)", "activity change, negative = growth inhibition": "inactive: -16.5%"}
{"smiles": "CCOc1ccc(OCCCC(=O)N2CCN(S(=O)(=O)c3ccccc3C#N)CC2)cc1", "Potency": "inconclusive [inhibitor, single point]"}
